Laboratory results published in the supplement of paper PMC10126150.
Sequences with one replicate were seen in a single cluster, so their values are uncertain.

System: ATP
Assay: switch fluorescence ratio, 500 uM ATP over buffer (Cy3 cluster intensity, sum of 5 cycles each) (fold (ratio)); higher = stronger signal-on switching upon ATP binding; sequences stand for … in TCGTCGGCAGCGTCAGATGTGTATAAGAGACAGTTTTTTTTTTTTTTTTTTTTTTTTT…TC
Conditions: aptamer strand: ATP DNA aptamer (quencher-CACCTGGGGGAGTATTGCGGAGGAAGG + anchor), 100 nM annealed; ATP concentration: 500 uM; one replicate
Outline: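 The fluorescence ratio divides summed target-cycle Cy3 intensity by summed buffer-cycle Cy3 intensity for each cluster and is averaged per switch-domain sequence. Cy3-labelled switching-strand clusters on a modified Illumina MiSeq flow-cell were annealed to 100 nM quencher-labelled ATP aptamer, then imaged in selection buffer and again after 15 min with 500 uM ATP at 22 °C. Five such cycles were run, with NaOH stripping and re-annealing between them, and clusters outside 100-1000 RFU were excluded.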
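Note: ATP exposure 15 min at 22 °C before imaging.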

Row | Sequence | switch fluorescence ratio
1 | GACTAATGGG | 1.06
2 | GTTAATTGTA | 1.01
3 | TCGTGTCGGT | 0.992
4 | GAGTGGAAAC | 1.03
5 | CCAAGGTTAT | 1.01
6 | ATTTCAACGA | 1.03
7 | AAGAACACGT | 0.984
8 | AGCTTACTGG | 1.06
9 | GATAGTGGGT | 0.967
10 | ATGACTTTGT | 1.13
11 | TCTGTAAGCG | 0.906
12 | GCCCAGCCCG | 0.998
13 | CAGATACCGT | 1.04
14 | AGGTGACTTT | 1.05
15 | ACGTGGCAGC | 1.04
16 | AGGGGTACCG | 0.965
17 | AATACGGCTT | 1.01
18 | AACTGGCCAT | 1.04
19 | CTGAGTCCAA | 1.33
20 | TTTACAGTGT | 1
21 | AACCTAACAG | 1.06
22 | ATGTTGGACC | 0.957
23 | AGTGAAACCG | 1
24 | CAAGGCTATT | 1.05
25 | TCGATGAGTG | 1.03
26 | TTACAATGGT | 0.99

Row | Sequence | switch fluorescence ratio
27 | AGGAGATAG | 0.982
28 | GAAAGTGGTT | 0.97
29 | CGCGATTGGG | 1.08
30 | TAATTAAAGT | 1.02
31 | CCCTTTCAT | 1.08
32 | CTATGTCATA | 1.01
33 | AATGGGTCTT | 1.02
34 | GGTACAGCCG | 1.02
35 | GTCGCTACAC | 1.35
36 | AAGATTACGG | 1.18
37 | CAATTCCATT | 0.97
38 | AAATCGATTT | 1.06
39 | ATCGTAGAC | 1.07
40 | GTATGGGGAC | 0.963
41 | CCTTATGCTC | 1.32
42 | GTCTAAGTT | 0.989
43 | TCTATACTCA | 1.05
44 | GCCTTTACTA | 1.03
45 | GGTGGAGAAC | 0.99
46 | CGCCAGACCT | 1.13
47 | TTAGTCCTCT | 0.981
48 | TTGACTCAAC | 1.11
49 | CTTCGTGATT | 1.22
50 | AAGGTACTGG | 1.02
51 | CCAAGTATA | 1.04
52 | AAAATATCTC | 1.02

Row | Sequence | switch fluorescence ratio
53 | ATATGAGC | 1.04
54 | TGCAGCCTAA | 1.02
55 | CATGTGTCTC | 0.983
56 | CCACAAAGTG | 1.05
57 | GCGTGAATTC | 1.06
58 | AGAAGTAGAG | 0.975
59 | TTGAAACCGC | 1.48
60 | CTAGTCGAGA | 0.973
61 | AAGGATCGCT | 1.01
62 | GAGAGAAACG | 0.907
63 | TACTTGTGT | 0.982
64 | CTAGTCCGAC | 1.06
65 | AGGAGAGAAA | 1
66 | TCCCCCTTGG | 2.26
67 | TAAAGGCCTA | 1.01
68 | TTGGCATGAA | 1.01
69 | TCCAAAGCGG | 2.26
70 | AATTCCTTTA | 1.02
71 | ATTGGCTGTA | 0.99
72 | GGTGGGCGTG | 0.994
73 | TCTGGGGCCA | 1.01
74 | TAGGTCAACA | 0.97
75 | AGCGGCGAAA | 1.06
76 | CGTGAATGCG | 0.993
77 | TTCTTTAGGT | 1.02
78 | ACTGCATAGC | 1.05

Row | Sequence | switch fluorescence ratio
79 | AGGGAAAGAT | 0.984
80 | TACAGTTCCC | 1.02
81 | TGAGTGGTTG | 1.02
82 | TATTTAGCTG | 0.959
83 | CACGTCGTGG | 0.978
84 | TTGCCTGTCG | 0.946
85 | AAGTCAGGTT | 1
86 | TTGCACCAGC | 1.08
87 | AGCTTGCGAC | 1.08
88 | CGTAGTCTAA | 1.09
89 | ATCATGCAAG | 1.01
90 | TGAGATCTTT | 1
91 | CGTTGTGATC | 0.988
92 | CATTACCCAG | 1.12
93 | ACTATAGGGT | 1.04
94 | TATAAATAAT | 0.993
95 | TGGGAAATTC | 1.02
96 | ACGCTGCGAA | 1.07
97 | GCTTGGTAGG | 0.991
98 | TCCGGTCGCT | 1.24
99 | TCTGGCACGG | 0.986
100 | AGCGCCCAGT | 1.12
101 | CAAATACATG | 1.04
102 | CTTACAATCC | 1.14
103 | AAACGCCTGA | 1.04
104 | CGTTTGTACA | 1.01

Row | Sequence | switch fluorescence ratio
105 | CTAATCATTG | 0.984
106 | TAGCTGCGGG | 1.02
107 | TGTGACTTTT | 1.02
108 | GGCTAGCCTC | 1.01
109 | AAAACCGCAC | 1.5
110 | CGATGAGCTC | 1.01
111 | TATCTTAGGT | 0.996
112 | CACGAGTCCG | 1.09
113 | GGCAGGGCCC | 0.96
114 | TATCGTCA | 1
115 | TCGACAGCCC | 1.11
116 | ACGGTGAGG | 0.989
117 | GTTTAAGAAG | 1.01
118 | CCTACTCCTC | 0.973
119 | AACCACCCCC | 1.78
120 | TGTTCATAG | 1.04
121 | CTCTTTCCCA | 1
122 | TCGACTACAG | 0.96
123 | CAAGGTACTG | 1.04
124 | CAGGTCCACT | 1.02
125 | TTCTTTATGA | 0.968
126 | CACTCGTTTG | 0.975
127 | TGGAGCGTGG | 0.993
128 | GGTGTTGTAC | 0.974
129 | GATCAACTGG | 1.05
130 | GCAGGTGGTT | 1.18

Row | Sequence | switch fluorescence ratio
131 | GACGTCTTGG | 0.997
132 | CGCGGTTTCA | 1.04
133 | AGAGACATTA | 1.02
134 | ACCTCCGTCG | 1.7
135 | GAATTGGTTA | 0.989
136 | ATGTTAATGG | 0.996
137 | TCTGCCAGAT | 1.01
138 | AAAGGTGTCG | 1.09
139 | ATTTAATTTA | 1
140 | TACACAATTG | 0.979
141 | TTCGGAAGAC | 1.14
142 | AAAAATTAGA | 0.996
143 | TCTTCAGACA | 1.01
144 | AGTATGCGTG | 1
145 | GGGCCATACG | 1.03
146 | GCGTTTGGTT | 1.01
147 | TTGAGTCTC | 0.987
148 | TCGGTAAACA | 0.925
149 | TGATGAGTA | 1.03
150 | ATGGGTGGGC | 1.01
151 | CAACACTCTT | 1.03
152 | TTAGACAGT | 1.01
153 | CACAATTGCA | 1.04
